# Source: PubChem BioAssay AID588855 (National Center for Advancing Translational Sciences (NCATS), 2011)
# Hit rate of the full screen: of about 410,000 compounds, about 5,000 (1.2%) were called active. This list was built around the results that the source calls inconclusive (neither active nor inactive); the mix of calls is not that of the screen. Calls come from the whole dose curve; as a rule, active = well fitted inhibition curve with a large enough effect; inconclusive = small, poorly fitted or top-dose-only effect; inactive = no such curve, though single readings can be large or run the other way. A potency beside an inconclusive call is a rough fit, not a confirmed value.
# Experiment: qHTS for Inhibitors of TGF-b; note: nearly all actives have a fitted effect of over 65% in size
# Conditions: HepG2 CAGA-GFP TGF-b/SMAD3 reporter, GFP fluorescence, 18 h, TGF-beta stimulated, 500 pg/mL final; series mostly up to 46.1 µM; activity, negative = inhibition: at the top concentration
# Procedure, shortened: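 Read-out: total well GFP (ex488/em500-530) summed from mean per-cell fluorescence. Cells: HEPG2 CAGA-GFP, 1% FBS DMEM, 18 h at 37 degrees C with 500 pg/mL final TGF-beta. Unstimulated wells served as the full-inhibition control; stimulated DMSO wells = 0%.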
# % is set by controls: 0 for no effect and ±100 for the full control effect; potency is the fitted concentration of half-maximal effect; tags give direction and shape of the fitted curve.
SMILES,"activity, negative = inhibition",Potency
COc1cccc(-c2nc(Cn3c(=O)cc(C)c4c(C)nn(-c5ccccc5)c43)c(C)o2)c1OC,inactive: -3.01%,
CCOc1ccc2nc(N(Cc3cccnc3)C(=O)c3cccs3)sc2c1,inactive: -5.45%,
COc1ccc(-c2nc3ccccc3n2Cc2ccccc2)cc1,,"inconclusive: 10 µM [inhibitor, single point]"
CC1(c2ccccc2)NC(=O)N(CC(=O)N(c2ccccc2)C2CCS(=O)(=O)C2)C1=O (stereo not given),,"inconclusive: 5.62 µM [inhibitor, single point]"
O=[N+]([O-])c1ccc(-n2nnnc2-c2ccccc2)cc1,inactive: -4.05%,
COc1ccc([C@H]2N[C@]3(CCCN(Cc4ccc(C(F)(F)F)cc4)C3=O)[C@H]3C(=O)N(C)C(=O)[C@@H]23)cc1,inactive: -0.827%,
O=C(Nc1nccs1)c1ccc(Br)c(S(=O)(=O)N2CCCC2)c1,,"inconclusive: 1.78 µM [inhibitor, partial curve, poor fit]"
CC(=O)c1ccc(OC2OCCOC2Oc2ccc(C(C)=O)cc2)cc1 (stereo not given),inactive: -14.5%,
COC(=O)c1ccccc1NS(=O)(=O)c1cc2c3c(c1)CC(=O)N3CCC2,,"inconclusive: 10 µM [inhibitor, single point]"
O=[N+]([O-])c1cnccc1NC1CCCCC1,,"inconclusive: 35.5 µM [inhibitor, single point]"
OC1CCC(Nc2ccn3nc(-c4cccc(OCc5ccccc5)c4)cc3n2)CC1 (stereo not given),inactive: -19%,
CCN(CC)S(=O)(=O)c1ccc(N(C)C)c(NC(=O)C2CCCC2)c1,inactive: -0.585%,
N#C/C(=C/c1ccc(Sc2nc3ccccc3[nH]2)o1)c1ccccc1F,,"inconclusive: 35.5 µM [inhibitor, single point]"
COc1cc(OC)cc(C(=O)NCCNc2nc3cc(C)cc(C)c3cc2C#N)c1,,"inconclusive: 35.5 µM [inhibitor, single point]"
O=C(N/N=C/c1ccccn1)c1cc(-c2ccc(Cl)cc2)nc2ccccc12,,"inconclusive: 11.2 µM [inhibitor, partial curve, poor fit]"
S=C(NCCCN1CCOCC1)N1CCN(c2nc(-c3ccc(Cl)cc3)cs2)CC1,,active: 12.6 µM
Cc1nc(-c2ccccc2)nc2[nH]ccc(=O)c12,inactive: 18.8%,
Cn1c(=S)oc2ccccc21,inactive: 0%,
COc1ccc(C(=O)Oc2c(Sc3ccccc3)c(C)nn2-c2ccccc2)c(OC)c1,,"inconclusive: 35.5 µM [inhibitor, single point]"
O=C(Nc1nnc(C2=COCCO2)o1)c1ccc(Cl)cc1,inactive: 21%,
C1CCC(C23CC4CC(CC(C4)C2)C3)NC1 (stereo not given),inactive: 11.7%,
COc1ccc(S(=O)(=O)N2C[C@H]3CON(C)[C@H]3C[C@H]2c2ccc(-c3cccc(F)c3)cc2)cc1,,"inconclusive: 11.2 µM [inhibitor, partial curve, poor fit]"
O=S1(=O)CCOCCCN1Cc1cccc(Cl)c1,inactive: 0.81%,

SMILES,"activity, negative = inhibition",Potency
COCCCn1c(SCc2ccccc2F)nc2c(sc3ccccc32)c1=O,inactive: -1.32%,
O=C(Cn1ncc2c3ccccc3n(Cc3ccccc3)c2c1=O)N1CCCCCC1,inactive: 0.637%,
COc1ccc(/C=N/n2cnc3c([nH]c4ccc(C)cc43)c2=O)cc1CN1CCCC1,,"inconclusive: 15.8 µM [inhibitor, single point]"
CC(C)Cn1c(SCC(=O)N2CCN(S(=O)(=O)c3ccccc3)CC2)nc2ccccc21,,"inconclusive: 15.8 µM [inhibitor, single point]"
Cc1ccc(C)c(NS(=O)(=O)c2ccc(-c3cnc(C4CC4)o3)cc2)c1,,"inconclusive: 5.01 µM [inhibitor, partial curve, poor fit]"
C[C@H](CO)N1C[C@H](C)[C@@H](CN(C)C(=O)Nc2ccc(C(F)(F)F)cc2)Oc2ccc(NS(=O)(=O)c3cn(C)cn3)cc2C1=O,inactive: -7.83%,
C[C@H](CO)N1C[C@H](C)[C@H](CN(C)S(=O)(=O)c2ccc(F)cc2)OCc2cnnn2CCCC1=O,inactive: 24.8%,
Cc1cccc(N2CCN(C(=O)c3ccc4ncsc4c3)CC2)c1C,inactive: 0%,
NC(=S)N/N=C/c1ccccc1,,"inconclusive: 11.2 µM [inhibitor, partial curve, poor fit]"
Cc1ccc(C)c(NC(=O)c2cc(S(=O)(=O)N3CCc4ccccc4C3)ccc2F)c1,inactive: -27.5%,
COc1ccccc1CNC(=O)c1cc2sccc2n1Cc1ccc(F)cc1,,"inconclusive: 22.4 µM [inhibitor, single point]"
CCCCn1c(SCC(=O)NCCOC)nc2ccc(N3CCOCC3)cc2c1=O,,"inconclusive: 1.58 µM [inhibitor, partial curve, poor fit]"
Cc1cccc(CC(Cc2nc3ccccc3[nH]2)c2nc3ccccc3[nH]2)c1 (stereo not given),,"inconclusive: 20 µM [inhibitor, single point]"
COc1ccc(Br)cc1CNC(=O)CCCn1c(=O)c2cccn2c2cccnc21,,"inconclusive: 35.5 µM [inhibitor, single point]"
CC(C)CN1C(=O)C(=O)N(CC(=O)NCc2ccc3c(c2)OCO3)C1=O,,"inconclusive: 3.16 µM [inhibitor, single point]"
COc1ccc(C2C=C(c3ccc(C)cc3)Nc3c(C(=O)Nc4ccccc4)cnn32)cc1 (stereo not given),,"inconclusive: 10 µM [inhibitor, partial curve, poor fit]"
Cn1c(SCC(=O)N2CCCc3ccccc32)nc2cccnc21,inactive: -0.906%,
OC(c1ccc(F)c(F)c1)c1nc(-c2csc3ccccc23)cs1 (stereo not given),,"inconclusive: 14.1 µM [inhibitor, partial curve]"
O=C(c1ccc2ccccc2c1)C1CCCN(C(=O)c2noc3c2CCCC3)C1 (stereo not given),,"inconclusive: 35.5 µM [inhibitor, single point]"
CC(Oc1cccc(Cl)c1)C(=O)Nc1cc(S(=O)(=O)N2CCOCC2)ccc1N1CCCCC1 (stereo not given),,"inconclusive: 2.82 µM [inhibitor, full curve]"
O=C(Nc1ccc(F)c(Cl)c1)C1CCCN(c2ncnc3onc(-c4ccc(F)cc4)c23)C1 (stereo not given),,"inconclusive: 35.5 µM [inhibitor, single point]"
NC(=O)c1cnn2c(C(F)(F)F)cc(-c3ccccc3)nc12,,"inconclusive: 35.5 µM [inhibitor, partial curve, poor fit]"
